These results are taken from the supplement of paper PMC11417369.

The list shows a part of the results.

The subject of this assay is PfHDP1 homeodomain (GST-tagged). Kind of assay: gcPBM binding intensity (ln(normalized median fluorescence intensity)); higher = stronger DNA binding. An outline of the steps: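 GST-fused DNA-binding domains of P. falciparum, expressed in E. coli, were applied at about 25 μg on average for 1 h to an Agilent 4 × 180k array of primer-extended double-stranded 36-bp intergenic genomic probes and negative controls. Binding intensity is the highest Masliner-normalised natural-log median intensity across replicate spots of either probe orientation, measured with Alexa488 anti-GST antibody and a 488 nm scan.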
For the sequence “ATATATATATATATATGTACATAATTAATAGCATAT [XGTACX_site1428]”, the “gcPBM binding intensity (ln)” value was 9.29.
In the case of “TATTTATTTATGTACGCACACAGTTGATATTAATTC [CACACA_site2754]”, the “gcPBM binding intensity (ln)” value is 7.
As for “ATATACAATACAAAAACACACACAAAAAAAGAAAAG [CACACA_site8668]”, the “gcPBM binding intensity (ln)” value was 6.8.
The value for “ATAGTATCTGGTAGCTGTACGAGTCGTAGAGTCTAA [XGTACX_site2539]” was 5.95; that for “ATGTATATTTTTAAAAGTACAGAATTTTCATATGAA [XGTACX_site5754]” was 6.81.
For the sequence “TTTCAAAAATGAGTTACACACACACCGATATATATA [CACACA_site5263]”, the “gcPBM binding intensity (ln)” value was determined as 7.1.
Turning to AATAAATACTAAATGGTGCAAAATTTTTTAACACTG, the “gcPBM binding intensity (ln)” value was 10.
Take “TATATATATTATAGATGTACTTTCATATATATGTTT [XGTACX_site8189]”: the “gcPBM binding intensity (ln)” value came out at 6.65.
With “AGCCACCATATTTACACACACATCAAAATGTATTAA [CACACA_site1816]”, the “gcPBM binding intensity (ln)” value is 7.2.
The value for “GTGTAATATGAAATGTGTACACACGCACACACAAAA [XGTACX_site6180]” was 7.61; that for “TAAAATATTTTTTGTAGTACCTTAATATTTTTGAAG [XGTACX_site3048]” was 6.46.
In the case of “TAAATATAATCTAAATGTACATGACATAATTTTTTT [XGTACX_site2856]” it was 6.01.
The value for “ATTTTATAAAGGAAGTGTACTAATAAATTCAAATTA [XGTACX_site3922]” was 6.18; that for “AAAAAAGAATTGTGCACACACAAAAAATGTTCATAA [CACACA_site1103]” was 10.3.
For “TCGATGTTGGTAGGATGTACGGTACCGGTAGTATTT [XGTACX_site4214]”, the “gcPBM binding intensity (ln)” value turned out to be 6.33.
In the case of “AAAAAAAAAAAAAAATGTACAAATATATACATATAT [XGTACX_site935]”, the “gcPBM binding intensity (ln)” value stood at 6.4.
“AAGAAAAAATATACTTCACACATTTAATATATAATT [CACACA_site4919]”: the “gcPBM binding intensity (ln)” value is 6.06.
In the case of “TCAATTAGACGAAAATGTACATATGTATATATTTTT [XGTACX_site5027]” it was 6.25; in that of “GATATATTTTATATATGTACATACAAGGGTAAATAT [XGTACX_site1202]”, 6.8; in that of “AAAATAAACTATAGTACACACTTATTATTATGAAAT [CACACA_site5488]”, 6.57.
Take “AAAATATGTAGCTACACACACATAAACAAAATAACA [CACACA_site1007]”: the “gcPBM binding intensity (ln)” value amounted to 6.79.
On to “AACATTTTAAATTATACACACATTTTGAATATATAT [CACACA_site3470]”, for which the “gcPBM binding intensity (ln)” value came out at 6.77.
As for “TATACACCCAGACACACACACACACCCAAAAAAAAA [CACACA_site497]”, the “gcPBM binding intensity (ln)” value was determined as 6.7.
Regarding “TGTTGTTGTAATTATTGTACGTTATGCGATTATTAT [XGTACX_site7005]”, the “gcPBM binding intensity (ln)” value worked out at 6.8.
For “ATATAATTATAAAATAAACACACATATATATTTATA [CACACA_site8039]”, the “gcPBM binding intensity (ln)” value was 6.41.
In the case of “TAATGTTACACAAACTTTTCATTCTTTTTAATAAAT [TGCATGCA_negctrl_site331]” it was 6.43; in that of “ATATATATATATATATGTACATAGAGAAGTATCTTT [XGTACX_site4737]”, 9.44; in that of “TTATTTATTTATAATTGTACATTGCAAATGAATTTA [XGTACX_site4083]”, 6.41.
Turning to “ATGAACATATTTTTTTGTACTTATGAAAATATGTTA [XGTACX_site5996]”, the “gcPBM binding intensity (ln)” value was 6.25.
As for “TAGTAGTTATCATTAACATGCAATAATATTATTTAA [TGCATGCA_site178]”, the “gcPBM binding intensity (ln)” value stood at 6.46.
As to “AAAAAAAAAAAAAAAAGTACTCTATAAGTAACATTT [XGTACX_site6973]”, the “gcPBM binding intensity (ln)” value worked out at 6.51.
As for “ATTTTTTTGTTATTGTTGAAAAGATGGTTCTTTTTT [CACACA_negctrl_site1346]”, the “gcPBM binding intensity (ln)” value turned out to be 6.59.
Consider “AATTTCTTATTTTGTACACACAATAAATATTCACAT [CACACA_site1612]”, for which the “gcPBM binding intensity (ln)” value was found to be 6.83.
The value for “GAAAACAAAATGGTAACACACAAATGTAAATAGTAT [CACACA_site2113]” was 6.72; that for “AAAATAAATAAATACACACACACGAATATTTATATA [CACACA_site6892]” was 6.77; that for “ATTATTTCAATTTTTTTTGTTTTTAAAAAAAAAAAT [CACACA_negctrl_site1387]” was 6.05.
Take “ATTATAAAAATATCGTGTACATATTTTTTAAAATAA [XGTACX_site5072]”: the “gcPBM binding intensity (ln)” value amounted to 6.11.
With “AAAAAAAAAAAAAAAAGTACACATCATTTTATGAAA [XGTACX_site1402]”, the “gcPBM binding intensity (ln)” value was determined as 6.41.
For the sequence “TAGTATAATATGAACACACACACACCCACAAAAAAA [CACACA_site2009]”, the “gcPBM binding intensity (ln)” value stood at 7.09.
The value for “CAAAAAATATATTTTTGTACTTATGTTTTTATTTTG [XGTACX_site5230]” was 6.54.
Turning to “TTATAATATAAAAAATGTACATTAAAAAAAAAGATT [XGTACX_site8950]”, the “gcPBM binding intensity (ln)” value amounted to 7.02.
Consider “AAGTATCAAAAATAAAGTACATATTTTGTAGGCAGG [XGTACX_site1463]”, for which the “gcPBM binding intensity (ln)” value worked out at 6.76.
Consider “TTTTTATTTTTTAGTAGTACACACTTTTTGAACCTT [XGTACX_site1091]”, for which the “gcPBM binding intensity (ln)” value came to 6.75.
Regarding “TTTTTTTTTTTCCTTACACACATATTTCATTTTATA [CACACA_site747]”, the “gcPBM binding intensity (ln)” value came to 6.63.
On to “TTTTATATATATTATACACACAAGGAAAAAAAAAAA [CACACA_site3677]”, for which the “gcPBM binding intensity (ln)” value was 6.75.
In the case of “AAAAAAAAAAAAAGTGCACACTTTTAATATAAATAT [CACACA_site3314]” it was 8.41.
With “TATAAAAGGAAACACACACACATATATATATATATA [CACACA_site939]”, the “gcPBM binding intensity (ln)” value amounted to 9.41.
In the case of “TGGATATATGTAAAAATTGCAAGAAAGATAAAAGGA [CACACA_negctrl_site64]” it was 8.18; in that of “TCTATGAATTAATATGCATGTAACGTATTTATACTT [TGCATGCA_site669]”, 6.47; in that of “ATTATGATATATATATGTACATATATATAATATAAT [XGTACX_site259]”, 6.55.
The value for “TTGAAGTATAATAAAGTGCAAAATTATAATGATCTT [GTGCAC_site9639]” was 9.12.
Turning to “TGTTGGTATGTGAATGCATGCATATAAGTCTATCTG [TGCATGCA_site780]”, the “gcPBM binding intensity (ln)” value is 6.91.
As to GTTAATTTTTGTATAGTGCAAAAATATAATAGTATG, the “gcPBM binding intensity (ln)” value was 9.54.
In the case of “AAATGGGAAATTTCATGTACTCATTTACCCTTATTA [XGTACX_site4740]” it was 5.89; in that of “ATCTGACAAAAGTGTACACATATATATATATATATA [CACACA_site4814]”, 9.45; in that of “CACATAATGAAAAATACACACATGTATATTTATAAA [CACACA_site2736]”, 6.45.
Take “AAAAGATAAAATTATGCACACATACGAATAATTTTA [CACACA_site8497]”: the “gcPBM binding intensity (ln)” value came to 10.1.
For “TATTTCACACAGTATATATATATATATATATATATA [TGCATGCA_negctrl_site118]”, the “gcPBM binding intensity (ln)” value was 9.44.
The value for “AAGGGAAAAAAAAAAGCACACATACGTAAATATATA [CACACA_site7960]” was 6.56; that for “TACTAAGAAAAGAACTGTACATAGAATATACCCAAG [XGTACX_site4757]” was 6.13; that for “AATATCAAAAAAAAAAAAAAAAAAAAAAAAAAAAAA [CACACA_negctrl_site288]” was 6.12.
For “AATATATTAAATATTACACACATACATTTAGTGGAA [CACACA_site8609]”, the “gcPBM binding intensity (ln)” value worked out at 6.71.
In the case of “AGATATATATATAGGTGTACTGGAATGAAATTGTTT [XGTACX_site8200]” it was 6.67.
In the case of “ATGATAATTATTAAGGGTACATAAAAATATATCTAT [XGTACX_site8969]” it was 6.36; in that of “ATTATTTAACATGTGGACACAAAAATTTAAGGGTTC [CACACA_negctrl_site1269]”, 6.63.
“TATAATTATTTTTTCACACATATGTATTTATATATA [CACACA_site4205]”: the “gcPBM binding intensity (ln)” value came to 7.05.
With “TACTAAATGATCATATGTACACATGTTTACTTTTTA [XGTACX_site1253]”, the “gcPBM binding intensity (ln)” value came to 7.67.
As for “AATATATATATATATATATATATTTCAATATATAAA [XGTACX_negctrl_site187]”, the “gcPBM binding intensity (ln)” value is 7.08.
The value for “ATACATATACACATTTGTACATATTCCTTTTTATCG [XGTACX_site1731]” was 6.86; that for “TTATTTAAAATGAAAAGTACATATTACTTTCTCACA [XGTACX_site5043]” was 6.47.
On to “TCTTGTTTTAATTTTTATATTATTATTTAGATATAT [CACACA_negctrl_site921]”, for which the “gcPBM binding intensity (ln)” value was found to be 6.63.
“TAGTATTATTTTTTTTGTACATATAAATGTAAAATA [XGTACX_site5282]”: the “gcPBM binding intensity (ln)” value stood at 6.12.
The value for “AAAACATAAATACATACACACATAATATATATTAAG [CACACA_site4239]” was 6.75; that for “TTTTTTTAAAATATGAGTACATAATATTGTAAAAAT [XGTACX_site6536]” was 6.56; that for “TTAATATATAATAAATTTTTTTTTTTTTTTTTTTTT [CACACA_negctrl_site892]” was 6.61.
The value for “ATATATTAATATGTGTGTACTTAACCATTCATATGT [XGTACX_site7395]” was 6.57.
Regarding “TATATAAATATATAATGTACGTTTTAAAAATAATAT [XGTACX_site3881]”, the “gcPBM binding intensity (ln)” value was found to be 7.1.
The value for “TTAATATGAAAACTCTGTACCCAACCTTCTTATGGA [XGTACX_site2126]” was 6.01; that for “CTTGGTAGTTTTTTCTTATAATCTAATTATTAATAA [CACACA_negctrl_site153]” was 6.54.
The value for “TTAACCACTAAAAGTACACACATATATACCTATATA [CACACA_site6026]” was 6.44; that for “TTTTAATAATATGGATGTACATAAAAATAAATAAAT [XGTACX_site7937]” was 6.92; that for “ATATAATAAATGTAGGTGCATAAAAATATTTTGTTA [GTGCAC_site9780]” was 9.6.
As to “TACACAAATATATACATACACACATATATACGCATA [CACACA_site394]”, the “gcPBM binding intensity (ln)” value came to 6.82.
In the case of “TAATATTGACTATATACACACATATATATATATATA [CACACA_site575]” it was 9.41; in that of “CAGACATATTAAAAGAGTACATATATATATATATAT [XGTACX_site1158]”, 9.32; in that of “TGTTTATTACTCAGGTGTACTCAATTTTTTTTTTTT [XGTACX_site3470]”, 6.72.
In the case of “AAAAAAAAAAAAGAACGTACAAATTAATTTATAGAA [XGTACX_site5584]”, the “gcPBM binding intensity (ln)” value turned out to be 6.57.
As for “TATTTACAAAAAAAATATAAAAAATATAAAATATAT [CACACA_negctrl_site575]”, the “gcPBM binding intensity (ln)” value came to 6.13.
